# The list shows a part of the results.
# B1: Arath Fbox LD (Arabidopsis thaliana) (protein)
# chain: EFSVWLEKASGKRCLMLSAMNLSIIWGDNPQYWQWIPIPESRFEKVAKLRDVCWFEIRGRTNTRVLSPRTRYSAYIVFKGVDKCYGFQNVAIEAAVGVVGQEPSRRLICFSEAIRRGRRNVVKPKQREDGWMEIELGEFFNDGGIMDNDEIEMSALETKQLNRKCGLIIQGIEIRPAKILAAASFLEQKLISEEDLNSAVDHHHHHH
# Experiments:
# Assay in all cases: glycan array binding signal (z-score within array); higher = stronger binding
# Settings in all cases: glycan notation: IUPAC condensed, linker removed
# [1] = target: Fuc(a1-2)[GalNAc(a1-3)]Gal(b1-3)GlcNAc(b1-6)GalNAc
# In short: (§1)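 Arrays were curated from the Consortium for Functional Glycomics database, 3228 in total, and kept only where the protein sequence was available. Binding is expressed as a within-array Z-score. This score was averaged across arrays of the same protein sequence at different concentrations or buffers and across linkers, and negative values can be read as non-binding.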
# [2] = target: Fuc(a1-2)[GalNAc(a1-3)]Gal(b1-4)Glc
# In short: as §1
# [3] = target: Fuc(a1-2)[GalNAc(a1-3)]Gal(b1-4)GlcNAc
# In short: as §1
# [4] = target: Fuc(a1-2)[GalNAc(a1-3)]Gal(b1-4)GlcNAc(b1-2)Man
# In short: as §1
# [5] = target: Fuc(a1-2)[GalNAc(a1-3)]Gal(b1-4)GlcNAc(b1-2)Man(a1-3)[Fuc(a1-2)[GalNAc(a1-3)]Gal(b1-4)GlcNAc(b1-2)Man(a1-6)]Man(b1-4)GlcNAc(b1-4)GlcNAc
# In short: as §1
# [6] = target: Fuc(a1-2)[GalNAc(a1-3)]Gal(b1-4)GlcNAc(b1-2)Man(a1-3)[Fuc(a1-2)[GalNAc(a1-3)]Gal(b1-4)GlcNAc(b1-2)Man(a1-6)]Man(b1-4)GlcNAc(b1-4)[Fuc(a1-6)]GlcNAc
# In short: as §1
# [7] = target: Fuc(a1-2)[GalNAc(a1-3)]Gal(b1-4)GlcNAc(b1-3)Gal(b1-4)GlcNAc
# In short: as §1
# [8] = target: Fuc(a1-2)[GalNAc(a1-3)]Gal(b1-4)GlcNAc(b1-3)Gal(b1-4)GlcNAc(b1-3)Gal(b1-4)GlcNAc
# In short: as §1
# [9] = target: Fuc(a1-2)[GalNAc(a1-3)]Gal(b1-4)GlcNAc(b1-3)GalNAc
# In short: as §1
# [10] = target: Fuc(a1-2)[GalNAc(a1-3)]Gal(b1-4)GlcNAc(b1-3)[Fuc(a1-2)[GalNAc(a1-3)]Gal(b1-4)GlcNAc(b1-6)]GalNAc
# In short: as §1
# [11] = target: Fuc(a1-2)[GalNAc(a1-3)]Gal(b1-4)GlcNAc(b1-6)GalNAc
# In short: as §1
# [12] = target: Fuc(a1-2)[GalNAc(a1-3)]Gal(b1-4)[Fuc(a1-3)]GlcNAc
# In short: as §1
# [13] = target: Fuc(a1-2)[GalNAc(a1-3)]Gal(b1-4)[Fuc(a1-3)]GlcNAc(b1-3)GalNAc
# In short: as §1
# [14] = target: Fuc(a1-2)[GalNAc(a1-4)]Gal(b1-4)GlcNAc
# In short: as §1
# [15] = target: Fuc(a1-2)[GalNAc(b1-3)]Gal
# In short: as §1
# [16] = target: Fuc(a1-3)GlcNAc
# In short: as §1
# [17] = target: Fuc(a1-3)[Gal(b1-4)]Glc6S
# In short: as §1
# [18] = target: Fuc(a1-3)[Gal(b1-4)]GlcNAc
# In short: as §1
# [19] = target: Fuc(a1-3)[Gal(b1-4)]GlcNAc(b1-2)Man
# In short: as §1
# [20] = target: Fuc(a1-3)[Gal(b1-4)]GlcNAc(b1-2)Man(a1-3)[Fuc(a1-3)[Gal(b1-4)]GlcNAc(b1-2)Man(a1-6)]Man(b1-4)GlcNAc(b1-4)GlcNAc
# In short: as §1
# [21] = target: Fuc(a1-3)[Gal(b1-4)]GlcNAc(b1-2)Man(a1-3)[Fuc(a1-3)[Gal(b1-4)]GlcNAc(b1-2)Man(a1-6)]Man(b1-4)GlcNAc(b1-4)[Fuc(a1-6)]GlcNAc
# In short: as §1
# [22] = target: Fuc(a1-3)[Gal(b1-4)]GlcNAc(b1-3)Gal(b1-3)[Fuc(a1-4)]GlcNAc
# In short: as §1
# [23] = target: Fuc(a1-3)[Gal(b1-4)]GlcNAc(b1-3)Gal(b1-4)[Fuc(a1-3)]GlcNAc
# In short: as §1
# [24] = target: Fuc(a1-3)[Gal(b1-4)]GlcNAc(b1-3)Gal(b1-4)[Fuc(a1-3)]GlcNAc(b1-3)Gal(b1-4)[Fuc(a1-3)]GlcNAc
# In short: as §1
# [25] = target: Fuc(a1-3)[Gal(b1-4)]GlcNAc(b1-3)GalNAc
# In short: as §1
# [26] = target: Fuc(a1-3)[Gal(b1-4)]GlcNAc(b1-6)GalNAc
# In short: as §1
# [27] = target: Fuc(a1-3)[Gal(b1-4)]GlcNAc(b1-6)[Gal(b1-3)GlcNAc(b1-3)]Gal(b1-4)Glc
# In short: as §1
# [28] = target: Fuc(a1-3)[Gal(b1-4)]GlcNAc6S
# In short: as §1
# [29] = target: Fuc(a1-3)[Gal3S(b1-4)]Glc
# In short: as §1
# [30] = target: Fuc(a1-3)[Gal3S(b1-4)]GlcNAc
# In short: as §1
# [31] = target: Fuc(a1-3)[Gal3S(b1-4)]GlcNAc6S
# In short: as §1
# [32] = target: Fuc(a1-3)[GalNAc(b1-4)]GlcNAc
# In short: as §1
# [33] = target: Fuc(a1-3)[GalNAc(b1-4)]GlcNAc6S
# In short: as §1
# [34] = target: Fuc(a1-4)GlcNAc
# In short: as §1
# [35] = target: Fuc(b1-3)GlcNAc
# In short: as §1
# [36] = target: Gal(a1-2)Gal
# In short: as §1
# [37] = target: Gal(a1-3)Gal
# In short: as §1
# [38] = target: Gal(a1-3)Gal(b1-3)GlcNAc
# In short: as §1
# [39] = target: Gal(a1-3)Gal(b1-3)GlcNAc(b1-2)Man
# In short: as §1
# [40] = target: Gal(a1-3)Gal(b1-3)GlcNAc(b1-2)Man(a1-3)[Gal(a1-3)Gal(b1-3)GlcNAc(b1-2)Man(a1-6)]Man(b1-4)GlcNAc(b1-4)GlcNAc
# In short: as §1
# [41] = target: Gal(a1-3)Gal(b1-3)GlcNAc(b1-3)GalNAc
# In short: as §1
# [42] = target: Gal(a1-3)Gal(b1-3)GlcNAc(b1-6)GalNAc
# In short: as §1
# [43] = target: Gal(a1-3)Gal(b1-3)[Fuc(a1-4)]GlcNAc(b1-2)Man(a1-3)[Gal(a1-3)Gal(b1-3)[Fuc(a1-4)]GlcNAc(b1-2)Man(a1-6)]Man(b1-4)GlcNAc(b1-4)GlcNAc
# In short: as §1
# [44] = target: Gal(a1-3)Gal(b1-4)Glc
# In short: as §1
# [45] = target: Gal(a1-3)Gal(b1-4)GlcNAc
# In short: as §1
binder,measurement,setting,value
B1,glycan array binding signal (z-score),[1],-0.557
same,glycan array binding signal (z-score),[2],0.172
same,glycan array binding signal (z-score),[3],-0.466
same,glycan array binding signal (z-score),[4],-0.497
same,glycan array binding signal (z-score),[5],-0.107
same,glycan array binding signal (z-score),[6],-0.243
same,glycan array binding signal (z-score),[7],-0.556
same,glycan array binding signal (z-score),[8],-0.59
same,glycan array binding signal (z-score),[9],-0.127
same,glycan array binding signal (z-score),[10],-0.433
same,glycan array binding signal (z-score),[11],-0.583
same,glycan array binding signal (z-score),[12],1.16
same,glycan array binding signal (z-score),[13],-0.017
same,glycan array binding signal (z-score),[14],0.47
same,glycan array binding signal (z-score),[15],1.09
same,glycan array binding signal (z-score),[16],-0.276
same,glycan array binding signal (z-score),[17],-0.335
same,glycan array binding signal (z-score),[18],0.2
same,glycan array binding signal (z-score),[19],-0.442
same,glycan array binding signal (z-score),[20],-0.396
same,glycan array binding signal (z-score),[21],2.04
same,glycan array binding signal (z-score),[22],-0.585
same,glycan array binding signal (z-score),[23],0.104
same,glycan array binding signal (z-score),[24],0.218
same,glycan array binding signal (z-score),[25],-0.455
same,glycan array binding signal (z-score),[26],-0.485
same,glycan array binding signal (z-score),[27],-0.56
same,glycan array binding signal (z-score),[28],-0.461
same,glycan array binding signal (z-score),[29],-0.156
same,glycan array binding signal (z-score),[30],1.06
same,glycan array binding signal (z-score),[31],-0.382
same,glycan array binding signal (z-score),[32],-0.431
same,glycan array binding signal (z-score),[33],-0.329
same,glycan array binding signal (z-score),[34],-0.362
same,glycan array binding signal (z-score),[35],-0.104
same,glycan array binding signal (z-score),[36],-0.171
same,glycan array binding signal (z-score),[37],0.075
same,glycan array binding signal (z-score),[38],9.37
same,glycan array binding signal (z-score),[39],1.04
same,glycan array binding signal (z-score),[40],2.08
same,glycan array binding signal (z-score),[41],-0.11
same,glycan array binding signal (z-score),[42],-0.583
same,glycan array binding signal (z-score),[43],2.84
same,glycan array binding signal (z-score),[44],-0.127
same,glycan array binding signal (z-score),[45],0.134
